# Results as given in the supplement of paper PMC11417369.
# ± gives the standard deviation of the averaged measurements. The list shows a part of the results.
# Test system: PfAP2-I AP2 domain 3 (GST-tagged)
# Assay: gcPBM binding intensity (ln(normalized median fluorescence intensity)); higher = stronger DNA binding
# Summary of the method: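 The binding buffer was 1× PBS containing 1% milk, 0.2 mg/ml BSA, 0.5% salmon testes DNA and 0.03% Triton X-100. In it, GST-tagged P. falciparum DNA-binding domains expressed in E. coli were applied for 1 h to an Agilent 4 × 180k array of primer-extended double-stranded 36-bp intergenic genomic probes plus negative controls. Binding intensity, read with Alexa488 anti-GST antibody and a 488 nm scan, is the highest Masliner-normalised natural-log median intensity across replicate spots of either probe orientation.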
row,Sequence,gcPBM binding intensity (ln)
1,TATATTAAAATATTCACACACTAACGTAAATCATTG [CACACA_site5520],7.45 ± 0.52
2,TATGTCGACATTTAAAGTACAAAAAAAAAAAAAAAA [XGTACX_site8985],8.12 ± 0.47
3,TAAAAATCCACAAGCACACAAATGTACATATATATA [CACACA_site2462],8.25 ± 0.71
4,CATACATAGATATATACACACATACCTATAAATACA [CACACA_site6513],7.95 ± 0.3
5,TATATATGTGTTATATACCCTTTTTTATATATTAAT [XGTACX_negctrl_site313],7.76 ± 0.6
6,TATGAAAAGATATATACACACATAATAAAGGTATAT [CACACA_site7713],7.76 ± 0.63
7,CATTATTATTAACATACACACGTGTTAAATACACCC [CACACA_site6118],8.47 ± 0.63
8,ATTAAAACAAAATGTACACACATATCATTTAATGAC [CACACA_site6543],7.72 ± 0.37
9,CTATTTCAATTTAGTGCACACATTTTAATTTATAAG [CACACA_site2040],11.4 ± 0.49
10,ACATACACATATACATGTACATATATATATATATAT [XGTACX_site5082],9.31 ± 0.97
11,TTTTAATCTTAATTATGTACATATAAAATGTGTATA [XGTACX_site7382],7.71 ± 0.39
12,ATATTCATTAACCACACACACAAAAAAAATAAAATT [CACACA_site3801],8.02 ± 0.41
13,ATATATGTATTTAATACACACAAAACTTTCATTCCA [CACACA_site3531],7.9 ± 0.62
14,TTTTTAGAAAGACATGCATGTAATAAAAATAAATAA [TGCATGCA_site685],7.8 ± 0.7
15,ATACATATATGCTTCTGTACACATAATTTATAAAAA [XGTACX_site7000],8.43 ± 0.47
16,CATATGTCTTGAGATCGTACGTTATTTTTTTTATTT [XGTACX_site1381],7.79 ± 0.56
17,AAAAATTATATATATATATATATATATATATGTATA [GTGCAC_negctrl_site488],8.38 ± 0.52
18,TGGTAAATTTACCGTTGTACATTCATTTATAACATT [XGTACX_site8910],7.72 ± 0.67
19,AAGAATATTAATATAAATAAGTAAATAAATAAATAA [CACACA_negctrl_site417],7.82 ± 0.7
20,TATAAATTTAAAATGACACACACTAAAATTATTTAA [CACACA_site1239],7.58 ± 0.53
21,TATATATATATATATATATATATATATATATGTATA [TGCATGCA_negctrl_site17],9.07 ± 0.75
22,GTATTATTATTATGCACACAAAAATATTTATACATA [CACACA_site3656],10.3 ± 0.46

row,Sequence,gcPBM binding intensity (ln)
1,ATATATATATAATCAAGTACACAGTAATAAAAAGAA [XGTACX_site1070],9.06 ± 0.19
2,ATTGTGTTCATCAGCACACACAACATCATGCAATAA [CACACA_site6960],8.13 ± 0.52
3,AATAATAACTGTAGGTGTACGTAAAAAAAAAATTAT [XGTACX_site3133],8.22 ± 0.67
4,TTTTTTTTTTTTTGTTGTACAATACTTAATCATTAT [XGTACX_site3422],8.02 ± 0.55
5,AAAAAAAGATTATACACACACATATATAAACCTACA [CACACA_site710],7.65 ± 0.42
6,TTTTTTTTTTTTGAAACATGCATTGTTTTATTCTTA [TGCATGCA_site15],7.99 ± 0.85
7,TCTATACCTATTCTTACACACATATGTATATATATA [CACACA_site563],8.63 ± 0.46
8,TTTCAAAATGTGTAAAATAAAAATAATATCATTACA [TGCATGCA_negctrl_site521],7.59 ± 0.29
9,ATGTGATATAAGTACACACACATATGTATATAGAAT [CACACA_site1823],8.16 ± 0.56
10,AATATAGATATAACCACACACATACATCTAATTCTA [CACACA_site1760],7.84 ± 0.57
11,AATGTATATATGTAATGTACATATGTAATGTATATA [XGTACX_site6509],7.87 ± 0.37
12,TTTTGTTTTGTTTTGTTTTGTTTTGTTTTATTTTAT [GTGCAC_negctrl_site383],7.61 ± 0.61
13,TGTTTCTTATTTTTTTCACACACTAAACATTTCAAA [CACACA_site2218],8.22 ± 0.57
14,GAAAAGAACAAGAGCATGCACTTAATAAGAATAATA,7.89 ± 0.69
15,AATAAAAAAAGTTTTTTTTTTTTTTAAACAATAGAC [CACACA_negctrl_site1061],7.71 ± 0.47
16,TATATGTTTTAAAAGTGTACTTTAGTTTCAATTTTT [XGTACX_site4269],7.62 ± 0.47
17,AAGAATGTTAATAGTACACACAATTATTATATAAAT [CACACA_site3739],7.9 ± 0.37
18,AAAAATTTAATGAAATGTACATATATGTTATTAATA [XGTACX_site6091],7.66 ± 0.46
19,AATAACCACCAACACACACACATATATATATATATA [CACACA_site3540],9.44 ± 0.55
20,ATAATAATAATAAAAAGTACATTTAATTATATAGAA [XGTACX_site7742],7.88 ± 0.23
21,ATACATATTACATGTTGTACTCCAACAAAAATGCCC [XGTACX_site3201],8.26 ± 0.13
22,TTAATTTCATTTTCTACACACCTATCCTTTTTTTTT [CACACA_site772],7.67 ± 0.76
